# Out of some 340,000 compounds screened, about 12,000 (3.5%) were called active. The inconclusive results got no clear call from the source; some entries with a clear call stand among them for comparison. Calls come from the whole dose curve; as a rule, active = well fitted inhibition curve with a large enough effect; inconclusive = small, poorly fitted or top-dose-only effect, or another doubt; inactive = no such curve, though single readings can be large or run the other way. Potencies of inconclusive entries are left out as doubtful fits.
# Assay: qHTS Assay for Inhibitors of Hepatitis C Virus (HCV)
# Conditions: Huh7.5.1 HCVcc-Cre (HCVcc is cell-culture hepatitis C virus) infection, luciferase reporter, 44 h; series mostly up to 41.8 µM
# In short: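 Compounds are dispensed onto cells plated 4 h earlier at 1,000 per well, with HCVcc-Cre virus (about 0.5 moi) added next. Following 44 h of culture, luminescent signal is measured for 15 sec after 15 min with substrate at room temperature.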
# Potency is the fitted concentration of half-maximal effect; tags give direction and shape of the fitted curve.
row,SMILES,Potency
1,O=C(Nc1ccc(N2C(=O)C3C4C=CC(C4)C3C2=O)cc1Cl)c1cccs1 (centres undefined),inactive
2,CC(C)CC1(C)NC(=O)N(CC(=O)Nc2cccc(S(=O)(=O)N(C)c3ccccc3)c2)C1=O (centres undefined),"inconclusive [inhibitor, single point]"
3,C[C@]12C(=O)N(c3cccc(Cl)c3)C(=O)N1[C@H]1c3ccccc3OC[C@@H]1[C@H]2c1ccccc1,inactive
4,O=C(CSc1nc2c(sc3ccccc32)c(=O)n1CCCN1CCCC1)NCc1ccccc1,"inconclusive [inhibitor, single point]"
5,CCN(CC)P(=O)(Nc1ccc(C)cc1Br)c1ccc(N(C)C)cc1NC(=O)c1ccco1 (centres undefined),"inconclusive [inhibitor, partial curve]"
6,COc1ccc(Br)cc1/C=N/NC(=O)CNC(=O)/C=C/c1ccccc1,"inconclusive [inhibitor, single point]"
7,COC1C(O)C(O)C(O)C(O)C1O (centres undefined),inactive
8,Cc1ccc(NC(=O)c2ccc(C)c(S(=O)(=O)N3CCCCC3)c2)nc1,inactive
9,COc1cc(-c2nc3ccc4ccccc4c3c3c2CCC3)ccc1O,"inconclusive [inhibitor, partial curve]"
10,CC1=CC(C)(C)Nc2ccc(Cc3ccc4c(c3)C(C)=CC(C)(C)N4)cc21,active: 10 µM
11,CCOCCCNC(=O)C1CCN(c2cc(C)nc3c(-c4ccc(OC)c(OC)c4)c(C)nn23)CC1,active: 11.2 µM
12,CC(=O)Nc1ccc(NC(=O)c2ccc(-c3ccccc3Cl)o2)cc1,"inconclusive [inhibitor, single point]"
13,CCOc1ccc(NC(=O)c2c(NC(=O)CNCCN3CCOCC3)sc3c2CCC3)cc1,"inconclusive [inhibitor, partial curve]"
14,Cc1cc(C)c(S(=O)(=O)N2CCN(C(=O)CCOc3ccccc3C)CC2)c(C)c1,"inconclusive [inhibitor, single point]"
15,O=C(CN1C(=O)C2CC=CCC2C1=O)Nc1nc(-c2ccc(F)cc2)cs1 (centres undefined),"inconclusive [inhibitor, partial curve]"
16,CCC(=O)N1CCc2cc(S(=O)(=O)CCC(=O)N3CCN(c4ccc(Cl)cc4)CC3)ccc21,active: 10 µM
17,O=C(Nc1nc(-c2ccncc2)cs1)C1c2ccccc2Oc2ccccc21,"inconclusive [inhibitor, partial curve]"
18,Cc1ccc(-c2noc(CCC(=O)N3CCCc4ccccc43)n2)cc1,"inconclusive [inhibitor, single point]"
19,COc1ccc(NC(=O)c2cccc(-n3c(C)ccc3C)c2)c(OC)c1,"inconclusive [inhibitor, single point]"
20,O=C(Cn1c(=O)cnc2ccccc21)NC1CCC(O)CC1 (centres undefined),inactive
21,COc1ccccc1CNC(=O)CC(C)C,"inconclusive [inhibitor, single point]"
22,CCOc1ccc(-c2c(C)n(-c3ccc(OCC)cc3)c3[n+]2CCCCC3)cc1,active: 2.51 µM

row,SMILES,Potency
1,Cc1ccc(S(=O)(=O)Nc2cccc(C(=O)NCC(c3ccccc3)N(C)C)c2)cc1F (centres undefined),inactive
2,Cc1ccc(S(=O)(=O)c2nc(S(=O)(=O)c3ccc(C)cc3)c(N3CCN(CCO)CC3)s2)cc1,"inconclusive [inhibitor, partial curve]"
3,COc1ccc(CNC(=O)CCCN2C(=O)NC3(CCCC3)C2=O)cc1,inactive
4,COc1cccc(CNC(=O)c2ccccc2SCC(=O)N2CCCC2)c1,"inconclusive [inhibitor, partial curve, poor fit]"
5,O=C1c2ccccc2C(O)(c2ccccc2)N1CCc1ccccc1 (centres undefined),"inconclusive [inhibitor, single point]"
6,O=C(/C=C\c1ccccc1)Nc1nccs1,inactive
7,COc1ccc(C(=O)C2CCCN(Cc3cnc(N4CCOCC4)s3)C2)cc1F (centres undefined),"inconclusive [inhibitor, partial curve, poor fit]"
8,COc1ccccc1N1CCN(CC(O)COc2ccc(S(=O)(=O)N3CCOCC3)cc2)CC1 (centres undefined),"inconclusive [inhibitor, partial curve]"
9,Cc1cc(N2CCN(c3nc4ccccc4s3)CC2)n2ncnc2n1,active: 3.16 µM
10,Cc1cccc(/C=N/NC(=O)Cc2ccc(Cl)cc2)c1O,active: 12.6 µM
11,O=C(Nc1ccccc1)C(=O)Nc1ccc2c(c1)N(C(=O)C1CC1)CCC2,"inconclusive [inhibitor, partial curve]"
12,CCC(=NCCC(c1ccccc1)c1ccccc1)c1c(O)[nH]c(=O)[nH]c1=O,"inconclusive [inhibitor, single point]"
13,Cc1ccc(/C=C2\SC(=S)N(C3CCS(=O)(=O)C3)C2=O)o1 (centres undefined),"inconclusive [inhibitor, single point]"
14,Cc1ccc(C(=O)NCC(=O)OCC(=O)N(CC(C)C)c2c(N)n(Cc3ccccc3)c(=O)[nH]c2=O)cc1C,"inconclusive [inhibitor, single point]"
15,FC(F)(F)c1cc(Oc2ccc(Cl)cc2)nc(-c2ccccn2)n1,"inconclusive [inhibitor, partial curve]"
16,COc1cccc(/C=C2\SC(=S)N(CCC(=O)N3CCCCC3CCO)C2=O)c1 (centres undefined),"inconclusive [inhibitor, single point]"
17,CCOc1ccc(NC(=O)CS(=O)CC(=O)NC2CCCc3ccccc32)cc1 (centres undefined),"inconclusive [inhibitor, partial curve]"
18,Cc1cc(C(=O)N/N=C/c2c(C)[nH]c3ccccc23)n[nH]1,inactive
19,CCOCCCn1c(=NC(=O)c2cccs2)c(C#N)cc2c(=O)n3cccc(C)c3nc21,"inconclusive [inhibitor, partial curve]"
20,CCOC(=O)Nc1cc(NC(=O)OCC)ncn1,inactive
21,CCCCSc1nnc(-c2c[nH]c3ccccc23)n1C,"inconclusive [inhibitor, single point]"
22,O=C(CCC1CCCN(C(=O)c2ccc3[nH]ccc3c2)C1)N1CCN(c2ccccn2)CC1 (centres undefined),"inconclusive [inhibitor, partial curve]"
